This is an account of results in the supplement of paper PMC3334620.

Whole data set: some 33,000 sequences, median “E-score (-0.5 to 0.5)” near -0.012, cut for the highest 2% near 0.29. The list shows a part of the results.

This assay concerns the target T1, Ybr033w (UniProt P38073).
T1 sequence: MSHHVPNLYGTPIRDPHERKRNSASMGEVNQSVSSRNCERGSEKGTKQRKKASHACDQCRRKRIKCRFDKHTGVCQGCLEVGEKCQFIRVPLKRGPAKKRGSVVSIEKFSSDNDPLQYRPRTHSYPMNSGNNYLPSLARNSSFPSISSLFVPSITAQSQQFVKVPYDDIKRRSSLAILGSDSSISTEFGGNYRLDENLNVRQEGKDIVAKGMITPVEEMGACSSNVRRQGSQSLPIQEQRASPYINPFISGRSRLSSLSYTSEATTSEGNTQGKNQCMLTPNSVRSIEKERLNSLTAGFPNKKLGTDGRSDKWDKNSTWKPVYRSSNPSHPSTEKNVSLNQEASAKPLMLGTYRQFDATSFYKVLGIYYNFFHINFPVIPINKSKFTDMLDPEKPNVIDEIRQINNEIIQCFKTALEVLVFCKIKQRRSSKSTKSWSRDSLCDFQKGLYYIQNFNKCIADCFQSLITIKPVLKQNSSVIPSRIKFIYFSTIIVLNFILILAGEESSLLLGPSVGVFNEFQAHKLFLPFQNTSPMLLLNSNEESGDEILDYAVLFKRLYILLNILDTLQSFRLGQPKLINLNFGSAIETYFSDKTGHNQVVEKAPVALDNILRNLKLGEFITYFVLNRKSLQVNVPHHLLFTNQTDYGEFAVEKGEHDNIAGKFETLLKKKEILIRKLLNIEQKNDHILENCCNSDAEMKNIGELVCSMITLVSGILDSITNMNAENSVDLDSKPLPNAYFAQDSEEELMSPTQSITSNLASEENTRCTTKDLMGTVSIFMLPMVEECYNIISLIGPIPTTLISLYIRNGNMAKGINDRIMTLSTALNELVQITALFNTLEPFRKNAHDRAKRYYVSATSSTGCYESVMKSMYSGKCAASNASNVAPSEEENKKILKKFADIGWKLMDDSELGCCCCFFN
The assay can be described thus: PBM E-score (8-mer binding enrichment) (E-score (-0.5 to 0.5)); higher = stronger / more preferred TF binding; most listed sequences are background and not binding sites. The conditions noted are these: protein concentration: 200 nM; construct: GST-full length. As to the method: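 Universal 'all 10-mer' protein binding microarrays (Agilent AMADID 015681) probed with GST-tagged S. cerevisiae TFs (full-length or DBD) made by in vitro transcription/translation (PURExpress), about 100-200 nM. Bound TF was detected with fluorescent anti-GST. Each ungapped 8-mer (which stands for itself and its reverse complement) is scored by the PBM enrichment score (E-score), a modified Wilcoxon-Mann-Whitney statistic from -0.5 to +0.5, computed with the Universal PBM Analysis Suite. Scale: above 0.35 generally sequence-specific binding.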
Take CCTTATAA: the “PBM E-score” value worked out at 0.147.

CGTCAAAG: the “PBM E-score” value is -0.0726.

As to CGAAAACG, the “PBM E-score” value is -0.0689.

On to CATTCATC, for which the “PBM E-score” value amounted to 0.0344.

GTGTGGGA: the “PBM E-score” value was determined as 0.0268.

For TCAGCGGA, the “PBM E-score” value is 0.0186.

Regarding CATTTACC, the “PBM E-score” value was 0.125.

For AGCATGAG, the “PBM E-score” value is -0.0716.

For the sequence CGTTTCAG, the “PBM E-score” value stood at 0.0643.

In the case of CACAGTCA, the “PBM E-score” value was -0.0243.

For the sequence ACGTACCC, the “PBM E-score” value is -0.114.

Consider GCGCCAGC, for which the “PBM E-score” value was -0.274.

For CAACCAGC, the “PBM E-score” value is -0.122.

Turning to ATCCCGGA, the “PBM E-score” value stood at 0.123.

In the case of ACAGGGGG, the “PBM E-score” value is -0.359.

Take AAATGGAT: the “PBM E-score” value came out at 0.148.

Take CGAGTATC: the “PBM E-score” value was -0.0724.

For CCGGTTGA, the “PBM E-score” value was -0.00715.

On to ATTTCTCG, for which the “PBM E-score” value worked out at 0.281.

As to GGGGATTA, the “PBM E-score” value was found to be 0.0655.

On to TGCAAAAA, for which the “PBM E-score” value amounted to 0.165.

As for ATCGTGGC, the “PBM E-score” value is -0.0454.

Consider AGGAGCGC, for which the “PBM E-score” value is -0.0933.

GGCTGATA: the “PBM E-score” value was 0.032.

As for GAATTACC, the “PBM E-score” value stood at 0.139.

For GGCTGCCC, the “PBM E-score” value was -0.25.

On to GTACGGAC, for which the “PBM E-score” value is -0.157.

On to ACGAGCGG, for which the “PBM E-score” value was -0.241.

Take AGACGACC: the “PBM E-score” value was -0.0861.

Take AATTCTCA: the “PBM E-score” value was found to be 0.204.

On to AGCGACCT, for which the “PBM E-score” value is -0.107.

Take GCTAGTCC: the “PBM E-score” value was -0.205.

Turning to AAAGAAAG, the “PBM E-score” value was determined as 0.0859.

On to AATAGCAT, for which the “PBM E-score” value was found to be 0.128.

As for AGCTCTGA, the “PBM E-score” value was -0.0863.

For the sequence GAAGTTCA, the “PBM E-score” value was found to be 0.189.

Turning to AACCGCGC, the “PBM E-score” value worked out at 0.0308.

On to ACTTTCGC, for which the “PBM E-score” value was -0.0392.

For AACCAGGT, the “PBM E-score” value was -0.174.

AGGGCCGC: the “PBM E-score” value is -0.374.

Take GAAACAAA: the “PBM E-score” value was determined as 0.222.

Take CTAGCTAG: the “PBM E-score” value stood at 0.0853.

Regarding CGATGCGA, the “PBM E-score” value is 0.0151.

Turning to AGGTGGAG, the “PBM E-score” value is -0.111.

Regarding TGTACTAA, the “PBM E-score” value came to 0.201.

As for GCGACGCA, the “PBM E-score” value is -0.0592.

Take GCGTGGAC: the “PBM E-score” value is -0.164.

Take CGTGTCTA: the “PBM E-score” value stood at 0.0255.

In the case of ACCATGGA, the “PBM E-score” value is -0.0893.

Turning to ACGCGAAC, the “PBM E-score” value was -0.151.

For the sequence GAAATACA, the “PBM E-score” value worked out at 0.14.

Take GTGGTCAA: the “PBM E-score” value was determined as 0.00743.

On to CGAGATAC, for which the “PBM E-score” value came out at 0.0579.

Regarding AGTGGGCA, the “PBM E-score” value was -0.0199.

For AGTCCACC, the “PBM E-score” value was -0.0107.

For CTCTGGGA, the “PBM E-score” value is -0.229.

As for AAGAAGAG, the “PBM E-score” value was 0.0947.

In the case of GATCAATA, the “PBM E-score” value was found to be 0.329.

Turning to ATAATTCG, the “PBM E-score” value was 0.294.

Regarding CAAGTAGC, the “PBM E-score” value was -0.145.

In the case of CGTCCACG, the “PBM E-score” value was -0.133.

Regarding AGCTTTTA, the “PBM E-score” value amounted to 0.138.

Regarding CGGGCTAC, the “PBM E-score” value was -0.144.

As to CTAACTGA, the “PBM E-score” value amounted to 0.116.

TATGAGAA: the “PBM E-score” value came out at 0.192.

AGGAACAT: the “PBM E-score” value came out at 0.399.

As for AGAAACTA, the “PBM E-score” value came to 0.0869.

With CTCAGCTA, the “PBM E-score” value is -0.0505.

As for ACGTACCT, the “PBM E-score” value was -0.0619.

Turning to CCTCACGC, the “PBM E-score” value is 0.0249.

Turning to CAATTCAC, the “PBM E-score” value turned out to be 0.175.

Turning to TGAGCACA, the “PBM E-score” value is -0.124.

In the case of AATTCCGT, the “PBM E-score” value turned out to be 0.312.

Turning to CCCCGACA, the “PBM E-score” value is -0.282.

ACGCATGA: the “PBM E-score” value stood at 0.00159.

CGGTGCAA: the “PBM E-score” value was -0.101.

For the sequence ACCAAGTC, the “PBM E-score” value was determined as 0.139.

For the sequence CTCACCAG, the “PBM E-score” value is -0.149.

On to TGCCGCAA, for which the “PBM E-score” value came to 0.0451.

Take GCACAGGC: the “PBM E-score” value is -0.136.

For the sequence CAGACGGC, the “PBM E-score” value was -0.197.

On to AGCAGGCG, for which the “PBM E-score” value was -0.135.

As for CGGGCCGC, the “PBM E-score” value was -0.261.

For GACGTTGA, the “PBM E-score” value turned out to be 0.123.

Turning to AACATTAG, the “PBM E-score” value is 0.126.

Take TACAAAAA: the “PBM E-score” value was 0.145.
